# Experimental data as given in the supplement of paper PMC3334620.
# Over roughly 33,000 sequences, “E-score (-0.5 to 0.5)” has its median near -0.035; the highest 2% begin near 0.35. Some of the results follow.
# Biological target: T1, Pdr3 (UniProt P33200)
# T1 sequence: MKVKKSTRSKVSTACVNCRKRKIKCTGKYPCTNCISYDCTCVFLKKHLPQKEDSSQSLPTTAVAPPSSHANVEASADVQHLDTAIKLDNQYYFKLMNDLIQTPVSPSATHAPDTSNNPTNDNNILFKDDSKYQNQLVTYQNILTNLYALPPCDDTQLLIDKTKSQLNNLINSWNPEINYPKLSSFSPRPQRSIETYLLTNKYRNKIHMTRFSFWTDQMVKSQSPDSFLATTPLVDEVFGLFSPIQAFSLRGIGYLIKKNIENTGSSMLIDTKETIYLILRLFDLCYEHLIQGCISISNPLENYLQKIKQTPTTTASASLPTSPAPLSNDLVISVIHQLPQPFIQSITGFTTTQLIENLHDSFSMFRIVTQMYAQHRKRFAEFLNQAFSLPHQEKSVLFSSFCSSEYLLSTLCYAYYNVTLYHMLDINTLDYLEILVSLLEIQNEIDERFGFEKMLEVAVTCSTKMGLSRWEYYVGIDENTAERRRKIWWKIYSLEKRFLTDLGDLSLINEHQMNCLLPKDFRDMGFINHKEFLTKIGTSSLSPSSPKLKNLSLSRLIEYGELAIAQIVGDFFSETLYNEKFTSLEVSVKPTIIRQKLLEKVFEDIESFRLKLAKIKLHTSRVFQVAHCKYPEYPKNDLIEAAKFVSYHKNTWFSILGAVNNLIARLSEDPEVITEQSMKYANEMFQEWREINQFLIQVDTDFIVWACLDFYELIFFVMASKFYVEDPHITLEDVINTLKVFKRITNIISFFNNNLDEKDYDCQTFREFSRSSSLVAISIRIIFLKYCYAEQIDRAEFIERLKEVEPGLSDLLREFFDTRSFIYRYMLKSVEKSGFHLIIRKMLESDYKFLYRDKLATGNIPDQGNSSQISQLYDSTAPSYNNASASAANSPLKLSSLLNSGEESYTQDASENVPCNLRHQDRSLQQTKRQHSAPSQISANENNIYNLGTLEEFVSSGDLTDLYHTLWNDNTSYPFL
# Test: PBM E-score (8-mer binding enrichment) (E-score (-0.5 to 0.5)); higher = stronger / more preferred TF binding; most listed sequences are background and not binding sites
# Conditions: protein concentration: 200 nM; construct: GST-full length
# In short: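 Yeast transcription factors, full-length or as DNA-binding domains, were expressed with a GST tag using PURExpress in vitro transcription/translation. At about 100-200 nM they were applied to universal all-10-mer Agilent arrays, double-stranded by primer extension on fresh or once-stripped slides. Fluorescent anti-GST detected bound protein, and masliner normalised the scans. E-scores for ungapped eight-base words, pooled with reverse complements, came from the Universal PBM Analysis Suite.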
row,Sequence,PBM E-score
1,CACCCTGA,-0.111
2,GACAGGAA,0.0827
3,GATGGCCA,-0.03
4,ACTCCCAC,-0.107
5,GTGCGTTA,0.0268
6,TGATACAA,-0.0803
7,AACGAGCT,-0.0544
8,AAACCTTC,-0.0895
9,AGTGGAAG,-0.185
10,ATGAACTG,0.126
11,CCCGACTC,0.154
12,GATTGTTA,-0.214
13,CCAGTAGC,0.133
14,CCTCAGCG,0.121
15,TAACTACA,-0.123
16,CAAAACAC,-0.0205
17,CACCCTCC,0.0843
18,CGATCCGA,0.326

row,Sequence,PBM E-score
1,CTGCGCAA,0.125
2,CTGTATGA,0.0466
3,ACGTAGAG,-0.236
4,ATGCCTAG,-0.137
5,CAACCTCC,0.112
6,TAACGCCA,-0.15
7,TGATTACA,-0.121
8,AGCTACTG,0.0942
9,GTCAACGA,-0.18
10,CGACCTGC,0.0521
11,CAGTGTGA,-0.0735
12,CGATGTGC,0.152
13,AGTATCCA,0.0282
14,ATCAAGAA,-0.0683
15,AAGATGAA,-0.0397
16,ACCCCTAT,-0.0493
17,CGTTTTCC,0.0681
